Source: PubChem BioAssay (NCI)
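Cells were grown in 96-well plates and exposed to each compound for 48 hours at five concentrations; endpoints were interpolated linearly between bracketing concentrations, or set to the highest concentration if not reached. GI50 marks 50% less growth. TGI: concentration producing complete growth inhibition.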 Peptide text beside a SMILES is read from it. * marks the point of attachment. OSu = O=C1CCC(=O)N1O*; OBn = c1ccc(CO*)cc1; Bn = c1ccc(C*)cc1

The compounds below were run on NCI-H322M lung (assay: growth of human tumour cells (NCI), 48 h).

Structure (SMILES) | GI50 | TGI
COc1cc2c3c(n(C)c(=O)c2cc1OC)-c1cc2c(cc1/C3=C\[C@@H](N)CCCCN)OCO2 | 0.703 µM | 58.8 µM
COc1cc(/C=C2\CCc3ccccc3C2=O)cc(OC)c1OC | – | 34.8 µM
CCC(C)CC(CC)NCCN1CCN(C(CC)CC(C)CC)C1=S (stereo not given) | 2.94 µM | 10.3 µM
CN(C)/C=N/S(=O)(=O)c1nn2c(C=O)c(-c3cc4ccccc4oc3=O)nc2s1 | – | > 93.5 µM
Cc1ccc(CC(=O)Nc2ccc(NC(=O)CNC(=O)/C=C/c3ccc(-c4ccccc4)cc3)cc2C(=O)c2ccccc2)cc1 | – | 24.6 µM
CC(C)(C)n1cc(-c2ccnc(NCCNS(=O)(=O)c3cccc4ccccc34)c2)c(-c2cccc(F)c2)n1 | 32.8 µM | > 100 µM
O=C(Nc1cccc(C(F)(F)F)c1)c1cc(-c2ccccc2)nc(=S)[nH]1 | – | > 100 µM
CN1c2ccccc2C(C)(C)C12CC(c1ccc(Cl)c(S(=O)(=O)N3CCCC3)c1)=NO2 (stereo not given) | > 100 µM | > 100 µM
Cc1ccc(N(C(=O)CC(=O)N2N=C(c3ccccc3)C(N=Nc3ccc([N+](=O)[O-])cc3)C2=O)C(=O)c2ccc(Cl)cc2)cc1 (stereo not given) | – | > 59 µM
COC(=O)C(N)CCCC(N)C(=O)NC(C)C(=O)NC(CCC(=O)NCCCNc1ccc([N+](=O)[O-])c2[nH]c3ccccc3c(=O)c12)C(N)=O (stereo not given) | – | 20.4 µM
O=C(O/N=C1/CCCC/C1=C\c1ccccc1)c1ccc(Cl)cc1 | – | > 100 µM
CC(=O)N1C(OCc2ccccc2)CCN1c1ccccc1 (stereo not given) | – | > 10 µM
C[C@@]12CCC[C@@](C)(C(=O)O)C1CC[C@@]13CC(=O)[C@@](CO)(CCC12)C3 (stereo not given in full) | > 100 µM | > 100 µM
O=C1CC(c2c[nH]c3ccccc23)C(=O)N1c1ccccc1 (stereo not given) | – | > 100 µM
COc1ccc(-c2nn(-c3cccc(NC(=O)Nc4cccc(C(F)(F)F)c4)c3)cc2-c2ccncc2)cc1Cl | 3.84 µM | > 100 µM
CC12CCC(O)CC1CCC1C2CCC2(C)C(C3=CC(=O)OC3)CCC12 (stereo not given) | 1.99 µM | 13.4 µM
O=C1CC(Cl)c2c(Cl)sc(Cl)c21 (stereo not given) | – | 28.9 µM
CCOC(=O)CN(Cc1ccccc1)Cc1c(C(=O)c2ccccc2)c2ccccc2n1C(=O)c1ccccc1 | – | > 100 µM
COc1cc(C2C3=C(N=C4SC(C(C)=O)=C(C)N42)c2ccccc2CC3)cc(OC)c1OC (stereo not given) | – | > 100 µM
Nc1c(O)c(S(=O)(=O)O)c(O)c2c1C(=O)c1ccccc1C2=O | 3.44 µM | 68.3 µM
NC(CNc1ccc(O)cc1)C(=O)O (stereo not given) | – | > 100 µM
O=C(CCC(=O)OCC1OC(O)(CC2OC(CO)C(O)C(O)C2O)C(O)C1O)OCc1ccccc1 (stereo not given) | – | > 100 µM
CC1=C(c2cc(C(=O)Nc3cccc(C(F)(F)F)c3)nc(NC#N)n2)Sc2ccccc2N1 | – | > 100 µM
CC(C)CC(NC(=O)C(N)CCC(=O)OCc1ccccc1)C(=O)NC(COCc1ccccc1)C(=O)NC(Cc1ccccc1)C(=O)ON1C(=O)CCC1=O (stereo not given) (H-E(OBn)LS(Bn)F-OSu; configuration not given here) | – | > 100 µM

Structure (SMILES) | GI50 | TGI
Clc1ccc(-c2nn3c(C45CC6CC(CC(C6)C4)C5)nnc3s2)cc1 | – | > 100 µM
CC(C)c1ccc(O)c(=O)cc1 | 7.86 µM | > 100 µM
CC1(CO)C(=O)OC12CCCCC2 (stereo not given) | – | > 100 µM
CC(CN(C)C)C(=O)/C=C/c1ccc(Cl)c(Cl)c1 (stereo not given) | – | 10.8 µM
CCOC(=O)/C=C(/C(=O)OCC)n1ccc(=O)[nH]c1=O | – | 31.4 µM
N#Cc1nc(Nc2ccc([N+](=O)[O-])cc2)sc1N | – | > 100 µM
CS(=O)(=O)CS(=O)CS(=O)CS(=O)CC(NC(=O)CCC(N)C(=O)O)C(=O)O (stereo not given) | – | > 100 µM
CCOC(=O)c1cnc2c(cnn2CC)c1NN=C(C)C | 57.9 µM | > 100 µM
C=C(C(=O)OC)[C@@H]1C[C@@H](O)[C@]2(C)CC/C=C(\C)CCC[C@H](C)[C@H](O)C1O2 | 42.4 µM | > 100 µM
O=C1OC(C(O)C(O)C(O)CO)C(O)C1O (stereo not given) | – | > 100 µM
CC12CCC(C1)C(C)(C)C2OC(=O)c1ccccc1C(=O)O (stereo not given) | – | > 100 µM
Cc1ccsc1/C=N/Nc1ccccn1 | – | > 100 µM
Nc1nc(Nc2ccc3c(c2)CCC(N2CCCC2)CC3)nn1-c1cc2c(nn1)-c1ccccc1CCC2 (stereo not given) | 0.603 µM | 2 µM
CCCN1C(=O)/C(=C(/O)C(=O)OCC)C(c2ccc(OC)c(OC)c2)C1=O (stereo not given) | – | > 100 µM
Oc1ccc(-c2nc3ccc4[nH]ncc4c3c3c2CCCC3)c2cccnc12 | 0.419 µM | 11.8 µM
Cc1ccc([Se][Se]c2ccc(C)cc2)cc1 | – | > 100 µM
CC(C)CC(=O)CC(O)C(Cl)(Cl)Cl (stereo not given) | – | > 100 µM
COc1ccc(C(=O)N/N=C/c2ccc(O)cc2O)cc1Nc1ccnc(C(F)(F)F)c1 | 0.763 µM | 34.3 µM
COc1cccc2c1C(=O)c1c(O)c3c(c(O)c1C2=O)C[C@@](O)(/C(C)=N\O)C[C@@H]3OC1CC(N)C(O)C(C)O1 (stereo not given in full) | – | 25 µM
C/C(=N\NC(=O)N/N=C(\C)c1ccccn1)c1ccccn1 | – | > 100 µM
c1ccc(-c2nc3ccccc3n3nnnc23)cc1 | – | > 100 µM
CCOC(=O)C12C(=O)CCN1CCc1ccccc1C2C (stereo not given) | – | > 100 µM
Cc1ccc(-n2c(-c3ccc(Cl)cc3)cs/c2=N\NC(=O)COc2n[nH]c(=O)c3ccccc23)cc1 | 56.5 µM | > 100 µM
c1ccc2nn(C3CCCCO3)nc2c1 (stereo not given) | – | > 100 µM

Structure (SMILES) | GI50 | TGI
O=[N+]([O-])c1cc(Cl)ccc1S(=O)(=O)c1cc(Cl)cc2c1NCCC2 | – | > 100 µM
C/C(NC(=O)c1ccccc1)=C(/C(=O)c1ccccc1)[C@@H]1OC(C)(C)O[C@@H]1[C@H]1COC(C)(C)O1 | – | > 100 µM
CC(CC(C)(C)[N+](C)(C)C)[N+](C)(C)C (stereo not given) | – | > 100 µM
CCOC(=O)c1ccc(NC(NC(=O)CC)(C(F)(F)F)C(F)(F)F)cc1 | – | > 100 µM
CC(C)=CCC/C(C)=C/CC/C(C)=C/CSc1ccc(Cl)cc1C(=O)O | – | 33.6 µM
C=CCc1cccc2cc(C(=O)Nc3nc(C45CC6CC(CC(C6)C4)C5)cs3)c(=O)oc12 | – | > 100 µM
CC1=N/C(=C\c2ccc([N+](=O)[O-])cc2)C(=O)O1 | – | > 100 µM
O=C(CC(=O)c1ccccc1NC1=Cc2ccccc2C(=O)C1=O)C(=O)NC1=C(Cl)C(=O)c2ccccc2C1=O | – | 22.5 µM
O=C1/C(=C2\SCC(=O)N2c2ccccc2)SC(=S)N1c1ccccc1 | – | > 100 µM
O=C1NC(=S)NC(=O)C1=Cc1ccc2ccccc2n1 | – | > 100 µM
O=C1CCC2CCOc3ccc(O)c1c32 (stereo not given) | – | > 100 µM
COC(=O)[C@H](Cc1ccccc1)NC(=O)[C@@H](OC)[C@@H]1Cc2cc3cc(OC4CC(OC5CC(O)C(O)C(C)O5)C(O)C(C)O4)c(C)c(O)c3c(O)c2C(=O)[C@H]1OC1CC(OC2CC(OC3CC(C)(O)C(O)C(C)O3)C(O)C(C)O2)C(O)C(C)O1 (stereo not given in full) | 0.0149 µM | 0.119 µM
CC(C)[C@@H](CS(=O)(=O)C(C)C)N1C(=O)[C@@](C)(CC(=O)O)C[C@H](c2cccc(Cl)c2)[C@H]1c1ccc(Cl)cc1 | 23.6 µM | > 100 µM
COc1cc(/C=C/C(=O)c2cc(OC)c(OC)c(OC)c2)cc(OC)c1OC | 2.94 µM | 12.7 µM
COc1ccc(N2C(=O)C3c4[nH]c5ccccc5c4C4CCC(C(C)(C)C)CC4C3C2=O)cc1OC (stereo not given) | – | 89.5 µM
Cc1ccnc2sc3ccccc3c(=O)c12 | – | > 100 µM
Cc1[nH]nc(C(=O)Nc2n[nH]c3ccccc23)c1[N+](=O)[O-] | > 92 µM | > 100 µM
COC(=O)c1cc2c(cc1Cl)SC(N(N(C)C)S(=O)(=O)c1ccc(Cl)cc1)=NS2(=O)=O | 20.6 µM | 59.5 µM
O=C1C(CN2CCCC2)CCCC1CN1CCCC1 (stereo not given) | – | 32 µM
COC(=O)[C@]12CC[C@@H](C)[C@H](C)[C@@H]1C1=CC[C@@H]3[C@@]4(C)C=C(O)C(=O)C(C)=C4CC[C@@]3(C)[C@]1(C)CC2 | 18.1 µM | 34.2 µM
Cc1cccc(N2C(=O)C(=O)C(c3nc4ccccc4s3)C(=O)C2=O)c1C | – | > 100 µM
O=c1cc2cc(O)[nH]c(=O)c2c(O)[nH]1 | – | > 100 µM
COC1CCC(n2c([C@@H]3CCCC(=O)N3c3ccc(F)c(F)c3)nc3cc(-c4c(C)noc4C)ccc32)CC1 (stereo not given in full) | 11.4 µM | 43.7 µM
c1ccc2c(c1)ccc1c3ccccc3ccc21 | > 50 µM | > 50 µM

Structure (SMILES) | GI50 | TGI
CN(Cc1ccccc1)C1(N(C)Cc2ccccc2)CC1 | – | > 100 µM
CCCCCCCCCC(=O)N[C@H]1CCc2cc(OC)c(OC)c(OC)c2-c2ccc(SC)c(=O)cc21 | – | > 100 µM
Oc1ccc(SCc2ccc(NCc3ccccc3)cc2)cc1 | – | 61.7 µM
CCCC1C(C#N)(C#N)C(C#N)=C(N)C1(C)C(C)=O (stereo not given) | – | > 100 µM
Cc1cnc2[nH]c(-c3cccc(Cl)c3)cc(=O)c2c1 | – | > 100 µM
O=[N+]([O-])c1ccc(-[n+]2ccc3ccccc3c2)c([N+](=O)[O-])c1 | – | 25.7 µM
O=C(NC(CO)CO)c1ccc2cc(C(=O)N3CC(CCl)c4ccc([N+](=O)[O-])cc43)[nH]c2c1 (stereo not given) | – | > 100 µM
COC1(OC)c2ccccc2C2(O)c3ccccc3C(=O)C12 (stereo not given) | – | > 100 µM
COc1cc(C(CC(OC)OC)=C(C#N)C#N)cc(OC)c1OC | – | 35.7 µM
O=[N+]([O-])c1ccc2c(c1)S(=O)c1ccccc1-2 (stereo not given) | – | > 100 µM
S=C1CSc2c(cnc3ccccc23)N1 | – | > 100 µM
Cc1ccc(Nc2nc(NS(=O)(=O)c3cc(C)c(Cl)cc3S)n[nH]2)cc1 | – | > 100 µM
C=C1[C@H](OCC(C)C)[C@@H](OC(=O)C(C)CC)[C@@H](O)C(C)(C)/C=C/[C@H](C)C(=O)[C@@]2(O)C[C@H](C)[C@H](O)[C@@H]2[C@H]1OC(=O)C(C)CC (stereo not given in full) | – | > 20 µM
CN1N(c2ccccc2)C(=O)C2=NC=C(C#N)C(=N)C21C (stereo not given) | – | > 100 µM
COC(=O)C(=O)C(C#N)c1ccc(Cl)c(Cl)c1 (stereo not given) | – | > 100 µM
Cc1csc2n(C)c(=O)c3ccccc3[n+]12 | – | > 100 µM
COc1cc(C)cc(OC)c1/C=C/C(=O)O | – | > 100 µM
OCCNc1nc2c(N3CCCC3)nc(N3CCNCC3)nc2nc1NCc1ccccc1 | – | 25.4 µM
COc1cccc(/C=N/n2c(Cc3ccc(Cl)cc3)n[nH]c2=O)c1 | – | > 100 µM
CC(C)(Oc1ccc(C(=O)c2ccc(Cl)cc2)cc1Cl)C(=O)N1CCN(c2ccccc2)CC1 | – | > 100 µM
COc1ccc(-c2[nH]ncc2-c2cc(OC)c(OC)c(OC)c2)cc1 | < 0.01 µM | > 44.1 µM
OC1(c2ccc(Cl)cc2)c2ccccc2C2=NCc3ccccc3CN21 (stereo not given) | – | 23.4 µM
NC(=S)N/N=C(\C(=O)Nc1ccc(Cl)c(Cl)c1)C1=NN(c2ccccc2)C(c2cccc([N+](=O)[O-])c2)CC1=O (stereo not given) | – | > 100 µM
O=C(CC(=O)Nc1ccccc1Cl)NNC(Sc1ccccc1)c1cc(N=Nc2ccc(Br)cc2)ccc1O (stereo not given) | – | 3.36 µM
